This passage reports binding signal results from PMC5700166.

The list shows a part of the results, in another mix than the full data. The list includes weakly bound sequences.

Assay in all cases: protein-binding microarray (PBM)
Holding throughout (settings): PBM: ~300 nM protein, 6 mM HEPES pH 7.8, 80 mM KCl, 0.5 mM EDTA, 0.5 mM EGTA, 6% glycerol, 35 ng/ul poly-dIdC, 1% milk, 1 h, room temperature; Ap Aiptasia and Nv Nematostella (sea anemones) / Co Capsaspora / Aq Amphimedon (sponge) / Dm Drosophila / Hu human; RHD is the Rel homology domain; high values mean tight binding; most listed sequences are background and not binding sites; double strand, one strand shown

Assay [1] concerns the target T1, GST-Ap-NF-kB RHD (UniProt A0A913YAJ5).
T1 sequence: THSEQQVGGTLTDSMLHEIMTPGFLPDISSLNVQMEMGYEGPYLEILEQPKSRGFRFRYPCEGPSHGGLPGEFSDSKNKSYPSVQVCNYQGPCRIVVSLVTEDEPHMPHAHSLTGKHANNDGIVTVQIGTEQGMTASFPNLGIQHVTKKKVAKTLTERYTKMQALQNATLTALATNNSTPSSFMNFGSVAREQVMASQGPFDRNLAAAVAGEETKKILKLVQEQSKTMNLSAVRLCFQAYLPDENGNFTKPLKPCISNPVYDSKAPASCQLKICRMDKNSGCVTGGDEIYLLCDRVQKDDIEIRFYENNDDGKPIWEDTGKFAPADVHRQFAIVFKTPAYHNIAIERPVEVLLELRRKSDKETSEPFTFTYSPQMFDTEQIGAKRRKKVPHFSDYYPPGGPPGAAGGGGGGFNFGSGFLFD

Assay [2] concerns the target T2, GST-Nv-NF-kB (Cys allele) (UniProt E5G601).
T2 sequence: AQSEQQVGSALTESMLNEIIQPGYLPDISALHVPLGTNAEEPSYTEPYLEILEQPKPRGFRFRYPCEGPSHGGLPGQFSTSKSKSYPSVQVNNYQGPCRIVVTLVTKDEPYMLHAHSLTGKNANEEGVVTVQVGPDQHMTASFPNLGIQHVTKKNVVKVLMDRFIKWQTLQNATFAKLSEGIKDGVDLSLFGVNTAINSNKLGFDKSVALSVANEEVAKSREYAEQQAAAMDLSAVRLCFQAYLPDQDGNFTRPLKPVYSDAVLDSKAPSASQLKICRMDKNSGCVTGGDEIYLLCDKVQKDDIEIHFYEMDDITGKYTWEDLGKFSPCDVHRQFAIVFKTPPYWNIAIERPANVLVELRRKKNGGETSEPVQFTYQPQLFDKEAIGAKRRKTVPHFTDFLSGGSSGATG

For assay [3], the target named is T3, GST-Co-NF-kB (UniProt F1ARL5).
T3 sequence: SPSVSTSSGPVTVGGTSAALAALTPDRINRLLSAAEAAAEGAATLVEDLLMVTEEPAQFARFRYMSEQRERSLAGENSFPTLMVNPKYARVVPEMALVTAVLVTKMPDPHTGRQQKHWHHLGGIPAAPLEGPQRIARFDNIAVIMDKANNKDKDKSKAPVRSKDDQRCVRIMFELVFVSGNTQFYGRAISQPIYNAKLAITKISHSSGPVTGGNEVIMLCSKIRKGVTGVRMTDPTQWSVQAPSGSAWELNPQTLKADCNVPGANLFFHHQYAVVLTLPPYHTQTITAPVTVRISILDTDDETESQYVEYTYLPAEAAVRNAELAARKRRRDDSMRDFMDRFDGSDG

Assay [4] addresses T4, GST-Dm-Relish (UniProt Q94527).
T4 sequence: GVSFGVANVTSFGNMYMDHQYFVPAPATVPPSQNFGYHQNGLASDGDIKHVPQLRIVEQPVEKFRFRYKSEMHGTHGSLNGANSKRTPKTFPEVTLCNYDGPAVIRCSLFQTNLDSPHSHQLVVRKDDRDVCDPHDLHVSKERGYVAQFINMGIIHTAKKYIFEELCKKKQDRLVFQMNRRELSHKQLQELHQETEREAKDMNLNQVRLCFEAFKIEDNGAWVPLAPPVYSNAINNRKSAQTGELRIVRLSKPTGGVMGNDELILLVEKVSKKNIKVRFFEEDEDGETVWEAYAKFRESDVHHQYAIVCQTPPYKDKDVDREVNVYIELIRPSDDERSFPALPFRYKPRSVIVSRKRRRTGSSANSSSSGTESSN

Assay [5] concerns the target T5, GST-Aq-NF-kB (UniProt A9Y5G7).
T5 sequence: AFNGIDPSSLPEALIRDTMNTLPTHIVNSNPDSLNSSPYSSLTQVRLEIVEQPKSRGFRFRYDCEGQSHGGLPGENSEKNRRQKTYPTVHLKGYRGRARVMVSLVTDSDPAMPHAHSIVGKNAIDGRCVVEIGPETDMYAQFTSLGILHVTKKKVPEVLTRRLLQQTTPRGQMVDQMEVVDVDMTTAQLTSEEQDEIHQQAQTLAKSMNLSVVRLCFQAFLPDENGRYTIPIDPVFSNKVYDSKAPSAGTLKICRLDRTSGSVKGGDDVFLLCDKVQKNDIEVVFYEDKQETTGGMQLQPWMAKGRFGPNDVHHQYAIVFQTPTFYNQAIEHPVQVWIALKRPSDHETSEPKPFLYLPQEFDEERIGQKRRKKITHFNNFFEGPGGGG

With “CCGATTAACATCACGACAGTAAATGATGTTAATCGGGTCTTGATTCGCTTGACGCTGCTG”, the binding signal in assay [1] is 0.302 z-score; in assay [2], 0.725 z-score; in assay [3] it was 0.408 z-score; in assay [4] it was 0.31 z-score; in assay [5], -0.0331 z-score.

For “CCGATTAACATCAGGAATTTGCATGATGTTAATCGGGTCTTGATTCGCTTGACGCTGCTG”, the binding signal in assay [1] was -0.216 z-score; in assay [2], 0.449 z-score; in assay [3] it was 0.422 z-score; in assay [4], 0.222 z-score; in assay [5] it was 0.0109 z-score.

As for “CCGATTAACATCATCCGAAATAATGATGTTAATCGGGTCTTGATTCGCTTGACGCTGCTG”, the binding signal in assay [1] was -0.0911 z-score; in assay [2], -0.717 z-score; in assay [3], -0.54 z-score; in assay [4], -0.838 z-score; in assay [5], -0.372 z-score.

Turning to “CCGATTAACATCAAAAATCCCCTTGATGTTAATCGGGTCTTGATTCGCTTGACGCTGCTG”, the binding signal is 10.4 z-score in assay [1], 12.3 z-score in assay [2], 10.1 z-score in assay [4] and 8.57 z-score in assay [5].

On to “CCGATTAACATCAGGGATTCCCCTGATGTTAATCGGGTCTTGATTCGCTTGACGCTGCTG”, for which the binding signal in assay [1] is 13.9 z-score; in assay [2] it was 13.2 z-score; in assay [4] it was 11.2 z-score; in assay [5], 11.5 z-score.

In the case of “CCGATTAACATCAGGGAACCCCCTGATGTTAATCGGGTCTTGATTCGCTTGACGCTGCTG”, the binding signal in assay [1] stood at 13 z-score; in assay [2], 11.8 z-score; in assay [4] it was 11 z-score; in assay [5], 11.1 z-score.

For “CCGATTAACATCAGGGGATCCCCTGATGTTAATCGGGTCTTGATTCGCTTGACGCTGCTG”, the binding signal was found to be 14.6 z-score in assay [1], 11.6 z-score in assay [2], 10.8 z-score in assay [4] and 11.3 z-score in assay [5].

“CCGATTAACATCAGGGGGACCCCTGATGTTAATCGGGTCTTGATTCGCTTGACGCTGCTG”: the binding signal is 8.92 z-score in assay [1], 5.39 z-score in assay [2], 9.89 z-score in assay [4] and 8.54 z-score in assay [5].

Turning to “CCGATTAACATCAGGGCTTCCCCTGATGTTAATCGGGTCTTGATTCGCTTGACGCTGCTG”, the binding signal came to 9.17 z-score in assay [1], 10.8 z-score in assay [2], 10.4 z-score in assay [4] and 9.48 z-score in assay [5].

With “CCGATTAACATCAAAAACCCCCTTGATGTTAATCGGGTCTTGATTCGCTTGACGCTGCTG”, the binding signal in assay [1] stood at 10.4 z-score; in assay [2], 10.3 z-score; in assay [4], 10.9 z-score; in assay [5], 9.31 z-score.
